PubChem BioAssay AID504332 (National Center for Advancing Translational Sciences (NCATS), 2011)
In all, about 350,000 compounds went through this assay and about 31,000 (8.9%) were called active. The inconclusive results got no clear call from the source; some entries with a clear call stand among them for comparison. Calls come from the whole dose curve; as a rule, active = well fitted inhibition curve with a large enough effect; inconclusive = small, poorly fitted or top-dose-only effect; inactive = no such curve, though single readings can be large or run the other way. Potencies beside an inconclusive call are fits to weak or partial responses and may not hold up.

molecular target: Histone-lysine N-methyltransferase EHMT2 (Homo sapiens) (UniProt Q96KQ7); test: qHTS Assay for Inhibitors of Histone Lysine Methyltransferase G9a; conditions: G9a H3K9 monomethylation, AlphaScreen, 2 h; activity, negative = inhibition: at 59 µM (top of the series) unless noted; note: nearly all actives have a fitted effect of over 75% in size
How it was run: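 Using a bead-based AlphaScreen, monomethylated H3K9 product from 2 h room-temperature reactions (G9a 20 nM, peptide 500 nM, SAM 20 uM) was detected with 0.5 ug/mL rabbit anti-H3K9me1 antibody.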
% is set by controls: 0 for no effect and ±100 for the full control effect; potency is the fitted concentration of half-maximal effect; tags give direction and shape of the fitted curve.

UniProt Q96KQ7, sequence (Q96KQ7 whole entry, looked up): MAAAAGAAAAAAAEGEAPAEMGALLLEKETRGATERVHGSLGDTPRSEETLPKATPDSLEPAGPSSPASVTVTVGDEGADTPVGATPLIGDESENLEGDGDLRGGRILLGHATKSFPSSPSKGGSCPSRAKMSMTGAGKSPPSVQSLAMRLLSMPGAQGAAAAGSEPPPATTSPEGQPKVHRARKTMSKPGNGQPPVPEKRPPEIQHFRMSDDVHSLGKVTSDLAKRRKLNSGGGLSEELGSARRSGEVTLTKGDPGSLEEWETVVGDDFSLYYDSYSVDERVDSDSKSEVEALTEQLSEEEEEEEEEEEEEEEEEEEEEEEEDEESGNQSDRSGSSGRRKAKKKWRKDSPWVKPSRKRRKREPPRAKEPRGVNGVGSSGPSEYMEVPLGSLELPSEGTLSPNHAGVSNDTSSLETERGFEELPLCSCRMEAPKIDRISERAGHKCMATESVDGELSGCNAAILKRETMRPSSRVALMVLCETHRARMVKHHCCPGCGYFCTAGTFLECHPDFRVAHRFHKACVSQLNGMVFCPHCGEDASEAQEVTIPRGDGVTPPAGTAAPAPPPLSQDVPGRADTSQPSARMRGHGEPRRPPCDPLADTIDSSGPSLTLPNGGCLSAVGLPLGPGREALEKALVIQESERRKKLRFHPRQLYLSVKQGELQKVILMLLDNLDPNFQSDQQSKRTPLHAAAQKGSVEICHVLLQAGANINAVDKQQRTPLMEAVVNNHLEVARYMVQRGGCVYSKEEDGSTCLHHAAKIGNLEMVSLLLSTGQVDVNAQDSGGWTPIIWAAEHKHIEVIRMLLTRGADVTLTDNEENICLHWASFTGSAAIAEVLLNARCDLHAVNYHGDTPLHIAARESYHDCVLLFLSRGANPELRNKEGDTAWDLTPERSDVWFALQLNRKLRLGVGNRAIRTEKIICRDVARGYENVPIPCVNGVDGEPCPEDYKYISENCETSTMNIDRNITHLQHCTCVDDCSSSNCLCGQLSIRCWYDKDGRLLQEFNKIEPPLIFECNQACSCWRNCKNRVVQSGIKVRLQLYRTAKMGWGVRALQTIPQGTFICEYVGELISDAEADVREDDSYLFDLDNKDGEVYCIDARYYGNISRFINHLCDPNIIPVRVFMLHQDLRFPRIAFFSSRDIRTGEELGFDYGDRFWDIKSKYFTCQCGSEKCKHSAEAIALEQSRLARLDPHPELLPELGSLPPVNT

Row | SMILES | activity, negative = inhibition | Potency
1 | O=c1cc(-c2ccc(O)cc2)oc2ccccc12 | inactive: -7.37% [at 102 µM] | 
2 | Cc1ccc2c(c1)CC1(CN2C)C(=O)OC(C)(C)OC1=O |  | inconclusive: 35.5 µM [inhibitor, single point]
3 | COc1cc(C(=O)OCC(=O)N2CCC(Cc3ccccc3)CC2)cc(OC)c1OC |  | active: 8.91 µM
4 | O=C(CN(c1ccccc1)S(=O)(=O)c1ccccc1)N/N=C/c1ccco1 | inactive: 12.4% | 
5 | CN(C)CCCNC(=O)c1cc(C(=O)c2c(Cl)cccc2Cl)c[nH]1 |  | inconclusive: 89.1 µM [inhibitor, single point]
6 | O=C1C2=C(c3ccccc31)[N+](=O)[C@@H]1CCCC[C@@H]1N2[O-] |  | inconclusive: 8.91 µM [inhibitor, partial curve, poor fit]
7 | CCOC(=O)c1ccc(S(=O)(=O)NCC(C)(C)N2CCOCC2)cc1 |  | inconclusive: 70.8 µM [inhibitor, partial curve, poor fit]
8 | CCNC(=O)c1c(O)c2c([nH]c1=O)CCCC2 |  | inconclusive: 79.4 µM [inhibitor, partial curve, poor fit]
9 | COc1cccc(C(=O)Nc2ccc(C(=O)OCc3cc(=O)n4cc(C)sc4n3)cc2)c1 | inactive: 7.94% | 
10 | Cc1ccc(C2(C)NC(=O)N(CC(=O)Nc3ccccc3C(=O)N3CCCCC3)C2=O)cc1 (stereo not drawn) | inactive: -31.9% [at 102 µM] | 
11 | CN(C)CCCO/N=C(\c1ccccc1)c1ccncc1 |  | inconclusive: 6.31 µM [inhibitor, full curve, poor fit]
12 | COc1ccc(CNC(=O)CCCSc2ccccc2)cc1 | inactive: 49.3% [at 102 µM] | 
13 | Cc1nc2ccc(S(=O)(=O)NCC(=O)Nc3ccc(C)c(Cl)c3)cc2s1 | inactive: -5.3% | 
14 | COc1ccc(-c2nc3c4ccccc4n(CC(=O)Nc4ccc(C(C)=O)cc4)c(=O)n3n2)cc1 | inactive: -0.383% | 
15 | O=C(c1cc(=O)[nH]c2ccccc12)N1CCN(S(=O)(=O)c2ccc3ccccc3c2)CC1 |  | inconclusive: 56.2 µM [inhibitor, partial curve]
16 | Cc1cccc(S(=O)(=O)C(C#N)c2nc3ccccc3nc2N2CCOCC2)c1 (stereo not drawn) |  | inconclusive: 1 µM [inhibitor, full curve, poor fit]
17 | Cc1ccc(OCCC(=O)OC(C)C(=O)Nc2ccc(Cl)cn2)cc1 (stereo not drawn) | inactive: 31.5% [at 102 µM] | 
18 | CCOc1ccc2nc(NC(=O)Nc3cccs3)sc2c1 |  | active: 44.7 µM
19 | Cc1[nH]c2ccccc2c1/C=N/NC(=S)NCc1ccccc1 |  | active: 50.1 µM
20 | N#CC1=C(N)OC2=C(CC/C2=C\c2ccccc2Cl)C1c1ccccc1Cl (stereo not drawn) |  | active: 22.4 µM
21 | CN(C)C(=S)Nc1ccc(S(=O)(=O)N2CCCCC2)cc1 | inactive: 31.9% | 
22 | Cc1cccc(N2CCN(C(=O)c3ccc4c(c3)OCCO4)CC2C)c1 (stereo not drawn) | inactive: -27.5% [at 102 µM] | 
23 | COc1ccc(C2C(C(=O)NCCN3CCOCC3)c3ccccc3C(=O)N2C)cc1OC (stereo not drawn) |  | inconclusive: 79.4 µM [inhibitor, single point]
24 | Cc1cccc(NC(=O)c2cc3c([nH]c4ccccc43)c(C)n2)c1C |  | inconclusive: 79.4 µM [inhibitor, single point]
25 | O=C(CN1C(=O)CC(c2ccco2)Sc2ccccc21)NC1CCCCC1 (stereo not drawn) |  | inconclusive: 50.1 µM [inhibitor, partial curve]

Row | SMILES | activity, negative = inhibition | Potency
26 | Oc1c(Cl)cc(Cl)cc1C=Nc1ccccc1N1CCCC1 |  | active: 10 µM
27 | CCOC(=O)c1sc(=S)n(-c2ccc(F)c(F)c2)c1N |  | inconclusive: 3.16 µM [inhibitor, partial curve, poor fit]
28 | CCn1c(SCC(=O)Nc2nc3ccccc3s2)nc2c(c1=O)SC(C)C2 (stereo not drawn) |  | inconclusive: 70.8 µM [inhibitor, single point]
29 | O=C(Cc1ccc(Br)cc1)Nc1cccc(-c2cn3c(n2)SCC3)c1 |  | inconclusive: 28.2 µM [inhibitor, full curve]
30 | CCn1c(=O)c2cc(C(=O)NCCc3cc(OC)ccc3OC)sc2c2ccccc21 |  | inconclusive: 28.2 µM [inhibitor, single point]
31 | COCCCn1c(=O)/c(=C\c2ccccc2OC(C)C)s/c1=C(/C#N)C(=O)Nc1ccc(C(=O)O)cc1 |  | active: 44.7 µM
32 | CCOC(=O)N1CCC(N(CCN(C)C)C(=S)Nc2ccc(OCC)cc2)CC1 | inactive: -40.6% [at 102 µM] | 
33 | Cc1cc2c(cc(C(=O)NCc3cccnc3)n2Cc2ccc(Cl)cc2)o1 |  | inconclusive: 6.31 µM [inhibitor, single point]
34 | O=C(/C=C/c1ccc(S(=O)(=O)N2CCOCC2)cc1)NC(=S)Nc1ccc(Cl)cc1Cl | inactive: -7.68% [at 12.7 µM] | 
35 | Cc1ccc(S(=O)(=O)N2CCN(C(=O)/C=C/c3ccccc3)CC2)cc1C |  | inconclusive: 44.7 µM [inhibitor, partial curve, poor fit]
36 | O=C(NCc1cccc(F)c1)c1ccc(-n2cnc3cccnc32)cc1 | inactive: -6.74% | 
37 | O=S(=O)(c1ccc(Cl)nc1)N1CCCCC1 | inactive: 0.174% [at 102 µM] | 
38 | c1ccc(N2CCN(c3ccccc3)C2c2ccncc2)cc1 |  | inconclusive: 79.4 µM [inhibitor, partial curve, poor fit]
39 | Cc1ccc(-n2c(C)nc3c(cnn3-c3ccccc3C)c2=O)cc1F | inactive: 1.76% | 
40 | O=C(Nc1nccs1)C1CC=CCC1C(=O)OCC(F)(F)C(F)F (stereo not drawn) | inactive: -124% [at 12.7 µM] | 
41 | CC(C)c1nc(SCC(=O)Nc2ccc(N3CCOCC3)cc2)c2ccccc2n1 |  | inconclusive: 35.5 µM [inhibitor, single point]
42 | O=C(NCc1ccco1)C(c1ccco1)N(Cc1cccs1)C(=O)Cn1nnc2ccccc21 (stereo not drawn) |  | inconclusive: 14.1 µM [inhibitor, partial curve, poor fit]
43 | CCOc1ccc(C(=O)c2nc3c(n2O)CCCCC3)cc1 |  | inconclusive: 35.5 µM [inhibitor, single point]
44 | COc1ccc(/C=N/NC(=O)c2ccco2)cc1Cn1nc(C)cc1C |  | inconclusive: 7.94 µM [inhibitor, partial curve, poor fit]
45 | O=c1c2ccccc2nc(-c2ccoc2)n1CCc1ccccc1 | inconclusive: -78.7% [inhibitor] | 
46 | COc1cc(C2C(C#N)=C(N)Oc3n[nH]c(C)c32)cc2c1OCO2 (stereo not drawn) |  | inconclusive: 79.4 µM [inhibitor, single point]
47 | CN(C(=O)c1ccno1)c1nnc(-c2cccnc2)s1 | inactive: 19.5% | 
48 | Cc1cccc(C)c1OCC(=O)Nc1nc(-c2ccc(Br)cc2)ns1 | inactive: 6.94% | 
49 | Cc1cc(Br)ccc1OCCn1ccnc1 |  | active: 31.6 µM
50 | CC1C(=O)CC(c2ccc([N+](=O)[O-])cc2)NC1c1ccc([N+](=O)[O-])cc1 (stereo not drawn) |  | inconclusive: 70.8 µM [inhibitor, partial curve, poor fit]

Row | SMILES | activity, negative = inhibition | Potency
51 | COc1ccc(/C=N/NC(=O)c2ccccc2O)cc1Cn1cc([N+](=O)[O-])cn1 | inactive: 10.4% [at 102 µM] | 
52 | COc1ccc(-n2nc3c(c2NC(=O)c2ccc(S(=O)(=O)N4CCOCC4)cc2)CS(=O)(=O)C3)cc1 |  | inconclusive: 89.1 µM [inhibitor, single point]
53 | Cc1sc(N/N=C/c2cccnc2)nc1-c1ccc(Cl)cc1 |  | inconclusive: 39.8 µM [inhibitor, single point]
54 | Cc1ccc(-c2cc(C(F)(F)F)n3nc(C(=O)Nc4ccc(Cl)c(C(F)(F)F)c4)cc3n2)cc1 | inactive: 4.76% | 
55 | Cc1cc(C)cc(NC(=O)c2cc(S(=O)(=O)NCc3ccco3)ccc2F)c1 |  | inconclusive: 89.1 µM [inhibitor, single point]
56 | CCN1CCN(S(=O)(=O)c2ccc(Cl)c(C(=O)N(C)C(c3ccccc3)c3ccccc3)c2)CC1 |  | active: 8.91 µM
57 | Cc1cccc(-n2c(-c3ccccc3)cn3c4c(=O)[nH]c(=O)n(C)c4nc23)c1 | inactive: 34.4% | 
58 | O=C(O)/C=C/C(=O)N1Cc2cc3ccccc3nc2C1 |  | inconclusive: 79.4 µM [inhibitor, single point]
59 | CCOC(=O)CN1C(=O)C(O)(CC(=O)c2cc(OC)ccc2OC)c2ccccc21 (stereo not drawn) | inactive: -9.07% | 
60 | CC(=O)c1ccc(NC(=O)c2c3c(nc4ccccc24)C(=O)N(C2CCCCC2)C3)cc1 | inactive: 10.4% | 
61 | O=S1(=O)c2ccccc2N(Cc2ccccc2)c2ccccc21 | inactive: -5.31% | 
62 | COCCNC(=O)CSc1nc2ccccc2c(=O)n1CCCC(=O)NCc1ccccc1 | inactive: 11.4% [at 102 µM] | 
63 | CC1CC(C)CN(C(=O)c2ccc3ncsc3c2)C1 (stereo not drawn) |  | inconclusive: 14.1 µM [inhibitor, partial curve, poor fit]
64 | CCOC(=O)C1CCN(c2ccc(-c3cccs3)nn2)CC1 |  | inconclusive: 89.1 µM [inhibitor, single point]
65 | CC1CCCCC12NC(=O)N(CC(=O)OCC(=O)NC(=O)c1ccccc1)C2=O (stereo not drawn) | inactive: -6.28% [at 12.7 µM] | 
66 | O=C(CCN1C(=O)C2CCCCC2C1=O)Nc1nc(-c2ccccc2)cs1 (stereo not drawn) |  | inconclusive: 44.7 µM [inhibitor, partial curve, poor fit]
67 | COc1cccc(N2CCN(C(=O)c3cnn(C(C)(C)C)c3C3CCN(C(=O)OC(C)(C)C)CC3)CC2)c1 |  | inconclusive: 31.6 µM [inhibitor, partial curve, poor fit]
68 | COc1ccccc1CN1CCN(Cc2ccc3ccccc3c2)CC1 |  | active: 7.94 µM
69 | COc1ccc(OCCn2cc(C(=O)C3CCCCC3)c3ccccc32)cc1 | inactive: 29.3% | 
70 | O=C(Nc1cccc(Br)c1)N1CCC(CN2CCCCC2)CC1 | inactive: -15.9% | 
71 | CCOC(=O)C1=C(C)OC(N)=C(C#N)C1c1ccccc1 (stereo not drawn) |  | inconclusive: 79.4 µM [inhibitor, single point]
72 | COc1cc(OC)cc(C(=O)N2CCN(C3CCN(Cc4ccccc4)CC3)CC2)c1 |  | active: 2.51 µM
73 | CCc1cccc(NC(=O)Cn2c(=O)n(Cc3ccccc3)c(=O)c3c2c2cc(OC)ccc2n3C)c1 | inactive: -8.29% | 
